# This is one part of the list.
# Tests used:
# Assay in all cases: glycan array binding signal (z-score within array); higher = stronger binding
# Details in all cases: glycan notation: IUPAC condensed, linker removed
# [1] = target: GalNAc(b1-4)GlcNAc(b1-2)Man
# In short: (§1)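 The binding signal is a Z-score computed within each array. Data were drawn from 3228 arrays in the Consortium for Functional Glycomics database, restricted to those with a known protein sequence. Scores were averaged over arrays of the same protein sequence at different concentrations or buffers, and over linkers, and negative values can be taken as non-binding.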
# [2] = target: GalNAc(b1-4)GlcNAc(b1-2)Man(a1-3)[GalNAc(b1-4)GlcNAc(b1-2)Man(a1-6)]Man(b1-4)GlcNAc(b1-4)GlcNAc
# In short: as §1
# [3] = target: GalNAc(b1-4)GlcNAc(b1-3)GalNAc(b1-4)GlcNAc
# In short: as §1
# [4] = target: GalNAc(b1-4)GlcNAc6S
# In short: as §1
# [5] = target: GalNAc(b1-6)GalNAc
# In short: as §1
# [6] = target: GalNAc3S(b1-4)GlcNAc
# In short: as §1
# [7] = target: GalNAc3S(b1-4)GlcNAc3S
# In short: as §1
# [8] = target: GalNAc3S(b1-4)[Fuc(a1-3)]GlcNAc
# In short: as §1
# [9] = target: GalNAc4S6S(b1-4)GlcNAc
# In short: as §1
# [10] = target: GalNAc6S(b1-4)GlcNAc
# In short: as §1
# [11] = target: Glc(a1-4)Glc
# In short: as §1
# [12] = target: Glc(a1-4)Glc(a1-4)Glc(a1-4)Glc
# In short: as §1
# [13] = target: Glc(a1-6)Glc(a1-6)Glc
# In short: as §1
# [14] = target: Glc(a1-6)Glc(a1-6)Glc(a1-6)Glc
# In short: as §1
# [15] = target: Glc(b1-4)Glc
# In short: as §1
# [16] = target: Glc(b1-6)Glc
# In short: as §1
# [17] = target: GlcA(b1-3)Gal
# In short: as §1
# [18] = target: GlcA(b1-3)GlcNAc
# In short: as §1
# [19] = target: GlcA(b1-6)Gal
# In short: as §1
# [20] = target: GlcA3S(b1-3)Gal(b1-4)GlcNAc(b1-2)Man
# In short: as §1
# [21] = target: GlcA3S(b1-3)Gal(b1-4)GlcNAc(b1-3)Gal(b1-4)Glc
# In short: as §1
# [22] = target: GlcNAc(a1-3)Gal(b1-4)GlcNAc
# In short: as §1
# [23] = target: GlcNAc(a1-4)Gal(b1-3)GlcNAc
# In short: as §1
# [24] = target: GlcNAc(a1-4)Gal(b1-4)GalNAc
# In short: as §1
# [25] = target: GlcNAc(a1-4)Gal(b1-4)GlcNAc
# In short: as §1
# [26] = target: GlcNAc(a1-4)Gal(b1-4)GlcNAc(b1-3)Gal(b1-4)Glc
# In short: as §1
# [27] = target: GlcNAc(a1-4)Gal(b1-4)GlcNAc(b1-3)Gal(b1-4)GlcNAc
# In short: as §1
# [28] = target: GlcNAc(a1-4)Gal(b1-4)GlcNAc(b1-3)Gal(b1-4)GlcNAc(b1-3)Gal(b1-4)GlcNAc
# In short: as §1
# [29] = target: GlcNAc(a1-4)Gal(b1-4)GlcNAc(b1-3)Gal(b1-4)[Fuc(a1-3)]GlcNAc(b1-3)Gal(b1-4)[Fuc(a1-3)]GlcNAc
# In short: as §1
# [30] = target: GlcNAc(a1-6)Gal(b1-4)GlcNAc
# In short: as §1
# [31] = target: GlcNAc(b1-2)Gal(b1-3)GalNAc
# In short: as §1
# [32] = target: GlcNAc(b1-2)Man(a1-3)[GlcNAc(b1-2)Man(a1-6)]Man(b1-4)GlcNAc(b1-4)GlcNAc
# In short: as §1
# [33] = target: GlcNAc(b1-2)Man(a1-3)[GlcNAc(b1-2)Man(a1-6)]Man(b1-4)GlcNAc(b1-4)[Fuc(a1-6)]GlcNAc
# In short: as §1
# [34] = target: GlcNAc(b1-2)Man(a1-3)[GlcNAc(b1-4)][GlcNAc(b1-2)Man(a1-6)]Man(b1-4)GlcNAc(b1-4)GlcNAc
# In short: as §1
# [35] = target: GlcNAc(b1-2)Man(a1-3)[GlcNAc(b1-4)][GlcNAc(b1-2)Man(a1-6)]Man(b1-4)GlcNAc(b1-4)[Fuc(a1-6)]GlcNAc
# In short: as §1
# [36] = target: GlcNAc(b1-2)[GlcNAc(b1-4)]Man(a1-3)[GlcNAc(b1-2)Man(a1-6)]Man(b1-4)GlcNAc(b1-4)GlcNAc
# In short: as §1
# [37] = target: GlcNAc(b1-2)[GlcNAc(b1-4)]Man(a1-3)[GlcNAc(b1-4)][GlcNAc(b1-2)Man(a1-6)]Man(b1-4)GlcNAc(b1-4)GlcNAc
# In short: as §1
# [38] = target: GlcNAc(b1-2)[GlcNAc(b1-4)]Man(a1-3)[GlcNAc(b1-4)][GlcNAc(b1-2)[GlcNAc(b1-6)]Man(a1-6)]Man(b1-4)GlcNAc(b1-4)GlcNAc
# In short: as §1
# [39] = target: GlcNAc(b1-2)[GlcNAc(b1-4)]Man(a1-3)[GlcNAc(b1-4)][GlcNAc(b1-2)[GlcNAc(b1-6)]Man(a1-6)]Man(b1-4)GlcNAc(b1-4)[Fuc(a1-6)]GlcNAc
# In short: as §1
# [40] = target: GlcNAc(b1-2)[GlcNAc(b1-6)]Man(a1-6)[GlcNAc(b1-2)Man(a1-3)]Man(b1-4)GlcNAc(b1-4)GlcNAc
# In short: as §1
# [41] = target: GlcNAc(b1-2)[GlcNAc(b1-6)]Man(a1-6)[GlcNAc(b1-2)Man(a1-3)]Man(b1-4)GlcNAc(b1-4)[Fuc(a1-6)]GlcNAc
# In short: as §1
# [42] = target: GlcNAc(b1-2)[GlcNAc(b1-6)]Man(a1-6)[GlcNAc(b1-4)][GlcNAc(b1-2)Man(a1-3)]Man(b1-4)GlcNAc(b1-4)GlcNAc
# In short: as §1
# [43] = target: GlcNAc(b1-3)Fuc
# In short: as §1
# [44] = target: GlcNAc(b1-3)Gal
# In short: as §1
# [45] = target: GlcNAc(b1-3)Gal(b1-3)GalNAc
# In short: as §1
binder,measurement,setting,value
rCnSL-proA (Clitocybe nebularis) (protein) AAFFSLVVLLALLPFGIHASALPSTELTPRVNPNLPGPNDVFVGFRGTNNIVGAIYEKDGIKDTPLNNGADAEMGPGSYITDGLFTARIFASGSAGNNPGTTATVCKIYASGVQWRGAPKGYIPVAYFGNGPTAEQRRQTYLRTLGLPGTAIRFGNLNTNPGQGPTAPRQMVVPPGPLRSLLKASCFPAADTRLPQTLHYFEKRVDWNIITAADSQTWGH,glycan array binding signal (z-score),[1],0.038
same,glycan array binding signal (z-score),[2],3.42
same,glycan array binding signal (z-score),[3],-0.063
same,glycan array binding signal (z-score),[4],-0.073
same,glycan array binding signal (z-score),[5],-0.268
same,glycan array binding signal (z-score),[6],-0.34
same,glycan array binding signal (z-score),[7],-0.693
same,glycan array binding signal (z-score),[8],-0.664
same,glycan array binding signal (z-score),[9],-0.579
same,glycan array binding signal (z-score),[10],-0.26
same,glycan array binding signal (z-score),[11],0.03
same,glycan array binding signal (z-score),[12],0.086
same,glycan array binding signal (z-score),[13],0.061
same,glycan array binding signal (z-score),[14],-0.23
same,glycan array binding signal (z-score),[15],0.068
same,glycan array binding signal (z-score),[16],-0.146
same,glycan array binding signal (z-score),[17],-0.93
same,glycan array binding signal (z-score),[18],0.021
same,glycan array binding signal (z-score),[19],1.19
same,glycan array binding signal (z-score),[20],-0.614
same,glycan array binding signal (z-score),[21],-0.793
same,glycan array binding signal (z-score),[22],-0.305
same,glycan array binding signal (z-score),[23],-0.192
same,glycan array binding signal (z-score),[24],-0.786
same,glycan array binding signal (z-score),[25],-0.729
same,glycan array binding signal (z-score),[26],-1.11
same,glycan array binding signal (z-score),[27],-0.381
same,glycan array binding signal (z-score),[28],-0.522
same,glycan array binding signal (z-score),[29],0.091
same,glycan array binding signal (z-score),[30],0.294
same,glycan array binding signal (z-score),[31],-0.604
same,glycan array binding signal (z-score),[32],-0.374
same,glycan array binding signal (z-score),[33],1.31
same,glycan array binding signal (z-score),[34],-0.318
same,glycan array binding signal (z-score),[35],-0.164
same,glycan array binding signal (z-score),[36],0.032
same,glycan array binding signal (z-score),[37],-0.276
same,glycan array binding signal (z-score),[38],-0.196
same,glycan array binding signal (z-score),[39],-0.642
same,glycan array binding signal (z-score),[40],-0.227
same,glycan array binding signal (z-score),[41],1.35
same,glycan array binding signal (z-score),[42],-0.426
same,glycan array binding signal (z-score),[43],-0.005
same,glycan array binding signal (z-score),[44],-0.618
same,glycan array binding signal (z-score),[45],-0.117
